# Experimental data from the supplement of paper PMC3334620.
# Over roughly 33,000 sequences, “E-score (-0.5 to 0.5)” has its median near -0.041; the highest 2% begin near 0.37. The list shows a part of the results.
# Biological target: T1, Ecm22 (UniProt Q05958)
# T1 sequence: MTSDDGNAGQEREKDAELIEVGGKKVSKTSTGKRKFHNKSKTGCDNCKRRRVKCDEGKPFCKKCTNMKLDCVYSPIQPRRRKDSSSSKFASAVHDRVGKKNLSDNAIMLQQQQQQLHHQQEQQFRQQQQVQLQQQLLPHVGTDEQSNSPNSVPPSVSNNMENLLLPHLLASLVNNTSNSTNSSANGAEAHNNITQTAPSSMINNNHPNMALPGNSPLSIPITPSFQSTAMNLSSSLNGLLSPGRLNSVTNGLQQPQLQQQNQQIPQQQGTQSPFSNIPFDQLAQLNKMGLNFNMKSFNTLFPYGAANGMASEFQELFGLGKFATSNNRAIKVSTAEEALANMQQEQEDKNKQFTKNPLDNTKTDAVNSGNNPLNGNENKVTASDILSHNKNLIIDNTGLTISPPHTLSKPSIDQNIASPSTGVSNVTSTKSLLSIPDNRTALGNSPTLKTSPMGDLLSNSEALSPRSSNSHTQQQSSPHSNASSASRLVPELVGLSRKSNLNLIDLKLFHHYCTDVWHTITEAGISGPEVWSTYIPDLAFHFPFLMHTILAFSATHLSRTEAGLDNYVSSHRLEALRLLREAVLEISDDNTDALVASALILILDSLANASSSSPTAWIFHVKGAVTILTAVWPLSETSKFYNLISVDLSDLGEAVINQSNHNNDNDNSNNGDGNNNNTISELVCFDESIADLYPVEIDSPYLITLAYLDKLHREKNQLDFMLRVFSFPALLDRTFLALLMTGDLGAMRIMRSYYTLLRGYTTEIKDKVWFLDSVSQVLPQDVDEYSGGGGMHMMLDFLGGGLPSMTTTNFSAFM
# Experiment: PBM E-score (8-mer binding enrichment) (E-score (-0.5 to 0.5)); higher = stronger / more preferred TF binding; most listed sequences are background and not binding sites
# Conditions: protein concentration: 200 nM; construct: GST-full length
# Method: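 Universal 'all 10-mer' protein binding microarrays (Agilent AMADID 015681) probed with GST-tagged S. cerevisiae TFs (full-length or DBD) made by in vitro transcription/translation (PURExpress), about 100-200 nM. Bound TF was detected with fluorescent anti-GST. Each ungapped 8-mer (which stands for itself and its reverse complement) is scored by the PBM enrichment score (E-score), a modified Wilcoxon-Mann-Whitney statistic from -0.5 to +0.5, computed with the Universal PBM Analysis Suite. Scale: above 0.35 generally sequence-specific binding.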
row,Sequence,PBM E-score
1,ATGAGGTC,-0.171
2,AACAAACT,0.0983
3,CCACCCGG,-0.089
4,ACTCAAAG,-0.07
5,AGCTGGTC,-0.0365
6,AACCTATA,-0.0644
7,CGTCTAAG,-0.0866
8,ACTGTCCA,-0.0513
9,CCAAGACG,-0.191
10,CTTGTCGA,0.0352
11,AGCCTAAG,-0.143
12,ACCTGGAT,-0.0247
13,TATCGATA,-0.147
14,GGAGTAGA,0.0357
15,ACGCGTAT,0.229
16,ATCGACAG,0.00794
17,GTTGTCTA,-0.113
18,CACACAGA,-0.117
19,CCCACGTC,-0.124
20,CTTGCACA,-0.151
21,AATGAGGG,-0.155
22,GACAAAGC,-0.0232
23,CGCGGCAG,-0.104
24,ACCTATCT,-0.228
25,AGCCCGAC,-0.161

row,Sequence,PBM E-score
1,ACTGTTTC,-0.11
2,GACCCCTA,-0.246
3,GATCGAGC,0.0895
4,CAGTTCCG,0.14
5,ATAAGCGC,0.0439
6,ATGAGTCC,-0.0916
7,AAATTTGG,-0.159
8,GCCAGTCC,-0.132
9,AGAGCCAT,-0.0124
10,AGACCCCG,-0.055
11,CTGCACTC,-0.104
12,ATATTGAG,-0.056
13,AAGCTAAC,0.0492
14,CTCCCTGA,-0.307
15,CACCAAAG,0.0179
16,CTACCTGA,-0.18
17,AGACCCAT,-0.255
18,ACGGAGAA,0.164
19,AATTGCCT,-0.126
20,CCGTCTTC,-0.175
21,GGTGCAGA,-0.272
22,CGGGAGCA,0.0293
23,CACTTTGC,-0.0521
24,ATGAACCC,-0.213
25,TATGTCCA,-0.051

row,Sequence,PBM E-score
1,GCAGCAAC,-0.0105
2,AGCGCTGG,-0.207
3,AGGCCGAT,-0.137
4,AATCCATT,0.0189
5,AACTTCCA,-0.117
6,CAATTTCC,0.0439
7,ATACATCC,0.00188
8,GATGCAGC,-0.0324
9,CAACTAGG,-0.174
10,AACTTGGG,-0.102
11,GACCGCCA,-0.0369
12,AAGCTCGC,0.297
13,CGTGAGTA,-0.0693
14,ATGATCTC,0.0144
15,CAACCGCA,0.0228
16,CACCACCC,-0.195
17,CGTACTTA,0.375
18,CACTCTGG,-0.00447
19,AGCCAATA,-0.0509
20,AAATAGTC,-0.0637
21,GAGAAGGC,-0.131
22,CGAGGTGA,0.218
23,GGAATCTA,-0.286
24,CACTCCCC,-0.0373
25,CCATGGGG,-0.158

row,Sequence,PBM E-score
1,CCGCGCAA,-0.028
2,CGATTCGA,0.165
3,AATGCCCC,-0.129
4,ACACTAGT,0.0337
5,ATGGCTTG,-0.0444
6,ATTTACTG,-0.156
7,TAACGCTA,0.0626
8,AATTGGGA,-0.0647
9,AACCTGTG,-0.124
10,AACAATGT,-0.12
11,AGTAAATA,0.00942
12,AACGACCG,0.407
13,AGATAGCG,-0.0857
14,ATCTCTGC,-0.069
15,AGGTTGTC,-0.185
16,GTTTGCAA,0.206
17,CGACGCTC,0.339
18,CTGCACAC,-0.334
19,ACTCAAGA,0.0179
20,AAGGCCTC,-0.0464
21,ACGCTGTC,0.0124
22,ATATTTTC,0.137
23,CCTAGTCG,-0.108
24,CTACGAGC,0.413
25,CTGGGCCC,-0.253

row,Sequence,PBM E-score
1,ATTCCCCC,-0.331
2,ATCTCGTG,0.193
3,TGGTTTAA,-0.178
4,ATACGCAG,0.26
5,CACGCCCC,-0.116
6,ATCACTCC,-0.0624
7,GTGCAGTA,-0.0687
8,GAGCTGGA,0.0532
9,GCCAACAC,0.128
10,CAATCTTC,0.0321
11,CCCGTACA,0.368
12,ACGCTTCT,-0.0189
13,CGACTGAC,-0.0824
14,GATAGCTA,-0.159
15,GTACCAGA,0.116
16,CAAATATC,0.0295
17,CCTATGAC,-0.0706
18,CGTGGTCC,-0.14
19,AAAATGCT,-0.0509
20,GGAGTTAA,-0.151
21,ATCAGTGA,-0.255
22,CGATGTCC,0.0399
23,CTGGCGAA,-0.106
24,CCACAGGG,-0.107
25,AAGTCGAG,-0.113

row,Sequence,PBM E-score
1,AGAAGGTA,-0.0231
2,AGTTGAGC,-0.0193
3,GAAAACTC,-0.163
4,ATTCGTTC,0.432
5,AGAAGGAC,-0.242
6,CTGAGATC,-0.134
7,ATCTGAGC,0.0659
8,GTTTAGAA,0.222
9,GTTCATTA,0.135
10,GGCCCGCC,-0.217
11,CAGTCTTA,-0.0489
12,CATTGCTC,0.0235
13,GAAAATAA,0.0123
14,AACTAAGC,0.101
15,GAGACCCA,-0.17
16,ACCAGGTG,-0.199
17,AAGTTGGG,-0.166
18,CAGGGAGA,-0.279
19,ACGACGGA,0.388
20,TACCTCTA,-0.0643
21,CTCCGAGA,0.103
22,ATTTCGCG,0.179
23,GGAAACTA,-0.034
24,AACTCTGC,-0.273
25,CGAGGCAG,0.232

row,Sequence,PBM E-score
1,ATTTCAAC,-0.0958
2,TCATGCGA,0.205
3,GAAATCAA,-0.186
4,CAGTTCGC,0.0691
5,AATAAAGC,0.0906
6,CATATTGG,0.113
7,CTTGGCGC,-0.147
8,CGATAGAA,0.149
9,ACCGGAGG,-0.174
10,AGACCCCA,-0.246
11,ACAGAGGA,-0.0592
12,TGAGCCCA,-0.0901
13,ATGAGACG,-0.112
14,ACGGATCG,0.247
15,AGGATCGG,-0.0515
16,AGACCCGC,-0.00174
17,TAAATCAA,0.115
18,GATCAGCA,-0.0245
19,CGCGTCTA,-0.0107
20,AGCAACAG,-0.058
21,GCTCCGGA,0.169
22,ACGGTCTA,0.167
